T1: high affinity hIL-2 receptor (hIL-2Rαβγ) on NK-92 cells (human, UniProt P01589 22-272; P14784 27-551; P31785 23-369)
T1 sequence 1: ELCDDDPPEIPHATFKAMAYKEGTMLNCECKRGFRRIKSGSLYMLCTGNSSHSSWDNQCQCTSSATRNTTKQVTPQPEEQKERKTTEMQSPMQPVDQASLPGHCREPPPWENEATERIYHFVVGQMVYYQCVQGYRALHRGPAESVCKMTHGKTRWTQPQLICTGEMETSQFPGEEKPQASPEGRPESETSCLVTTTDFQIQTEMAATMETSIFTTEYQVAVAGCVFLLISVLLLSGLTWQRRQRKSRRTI
T1 sequence 2: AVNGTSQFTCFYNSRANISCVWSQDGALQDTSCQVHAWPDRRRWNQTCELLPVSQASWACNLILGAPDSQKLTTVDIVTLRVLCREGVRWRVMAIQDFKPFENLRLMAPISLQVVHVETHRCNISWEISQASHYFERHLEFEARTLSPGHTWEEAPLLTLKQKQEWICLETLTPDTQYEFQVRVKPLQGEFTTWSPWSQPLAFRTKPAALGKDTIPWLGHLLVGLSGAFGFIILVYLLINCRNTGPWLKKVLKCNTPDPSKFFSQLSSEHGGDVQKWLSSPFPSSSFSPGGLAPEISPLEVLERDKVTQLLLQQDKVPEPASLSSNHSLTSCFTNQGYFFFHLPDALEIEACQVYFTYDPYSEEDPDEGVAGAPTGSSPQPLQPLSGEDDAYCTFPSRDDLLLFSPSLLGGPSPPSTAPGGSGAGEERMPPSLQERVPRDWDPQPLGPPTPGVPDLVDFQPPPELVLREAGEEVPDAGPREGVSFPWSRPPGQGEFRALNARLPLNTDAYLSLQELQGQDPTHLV
T1 sequence 3: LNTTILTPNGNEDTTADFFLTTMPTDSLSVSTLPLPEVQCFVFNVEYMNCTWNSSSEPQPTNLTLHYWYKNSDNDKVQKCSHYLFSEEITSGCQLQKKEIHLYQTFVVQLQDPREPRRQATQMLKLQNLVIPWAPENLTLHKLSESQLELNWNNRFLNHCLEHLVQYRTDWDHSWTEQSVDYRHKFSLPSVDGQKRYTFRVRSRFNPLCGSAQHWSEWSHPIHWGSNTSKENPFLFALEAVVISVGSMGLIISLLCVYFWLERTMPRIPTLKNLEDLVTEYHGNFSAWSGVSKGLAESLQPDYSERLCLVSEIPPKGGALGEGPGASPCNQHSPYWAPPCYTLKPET

T2: intermediate affinity hIL-2 receptor (hIL-2Rβγ) on TF1+IL-2Rβ cells (human, UniProt P14784 27-551; P31785 23-369)
T2 sequence 1: T1 sequence 2
T2 sequence 2: T1 sequence 3

T3: intermediate-affinity hIL-2 receptor (IL-2Rβγ) on TF1+IL-2Rβ cells (human, UniProt P14784 27-551; P31785 23-369)
T3 sequence 1: T1 sequence 2
T3 sequence 2: T1 sequence 3

T4: high-affinity hIL-2 receptor (IL-2Rαβγ) on NK-92 cells (human, UniProt P01589 22-272; P14784 27-551; P31785 23-369)
T4 sequence 1: T1 sequence 1
T4 sequence 2: T1 sequence 2
T4 sequence 3: T1 sequence 3

B1: 1H3-hIgG1-L6-hCD25(1-164)-L20-hIL-2 (E15A) (other)
heavy: EVQLVESGGGLVQPGRSLKLSCAVSGFTFSDYAMAWVRQAPKKGLEWVATISYDGSRTYYRDSVKGRFTISRDNAKITLYLQMDSLRSEDTATYYCARHGSGYFDYWGQGVMVTVSS[not shown - human IgG1 constant region]SGGGGSELCDDDPPEIPHATFKAMAYKEGTMLNCECKRGFRRIKSGSLYMLCTGNSSHSSWDNQCQCTSSATRNTTKQVTPQPEEQKERKTTEMQSPMQPVDQASLPGHCREPPPWENEATERIYHFVVGQMVYYQCVQGYRALHRGPAESVCKMTHGKTRWTQPQLICTSGGGGSGGGGSGGGGSGGGS[not shown - about 150 residues]
light: DTVLTQSPALAVSPGERVTISCRASESVRTGVHWYQQKPGQQPKLLIYGASNLESGVPARFSGSGSGTDFTLTIDPVEADDTATYFCQQSWNDPFTFGSGTKLEIKRTVAAPSVFIFPPSDEQLKSGTASVVCLLNNFYPREAKVQWKVDNALQSGNSQESVTEQDSKDSTYSLSSTLTLSKADYEKHKVYACEVTHQGLSSPVTKSFNRGEC
B2: 1H3-hIgG1-L6-hCD25(1-164)-L20-hIL-2 (D84K) (other)
heavy: EVQLVESGGGLVQPGRSLKLSCAVSGFTFSDYAMAWVRQAPKKGLEWVATISYDGSRTYYRDSVKGRFTISRDNAKITLYLQMDSLRSEDTATYYCARHGSGYFDYWGQGVMVTVSS[not shown - human IgG1 constant region]SGGGGSELCDDDPPEIPHATFKAMAYKEGTMLNCECKRGFRRIKSGSLYMLCTGNSSHSSWDNQCQCTSSATRNTTKQVTPQPEEQKERKTTEMQSPMQPVDQASLPGHCREPPPWENEATERIYHFVVGQMVYYQCVQGYRALHRGPAESVCKMTHGKTRWTQPQLICTSGGGGSGGGGSGGGGSGGGS[not shown - about 150 residues]
light: B1 light
B3: 1H3-hIgG1-L6-hCD25(1-164)-L20-hIL-2 (D20W) (other)
heavy: EVQLVESGGGLVQPGRSLKLSCAVSGFTFSDYAMAWVRQAPKKGLEWVATISYDGSRTYYRDSVKGRFTISRDNAKITLYLQMDSLRSEDTATYYCARHGSGYFDYWGQGVMVTVSS[not shown - human IgG1 constant region]SGGGGSELCDDDPPEIPHATFKAMAYKEGTMLNCECKRGFRRIKSGSLYMLCTGNSSHSSWDNQCQCTSSATRNTTKQVTPQPEEQKERKTTEMQSPMQPVDQASLPGHCREPPPWENEATERIYHFVVGQMVYYQCVQGYRALHRGPAESVCKMTHGKTRWTQPQLICTSGGGGSGGGGSGGGGSGGGS[not shown - about 150 residues]
light: B1 light
B4: 1H3-hIgG1-L6-hCD25(1-164)-L20-hIL-2 (D20S) (other)
heavy: EVQLVESGGGLVQPGRSLKLSCAVSGFTFSDYAMAWVRQAPKKGLEWVATISYDGSRTYYRDSVKGRFTISRDNAKITLYLQMDSLRSEDTATYYCARHGSGYFDYWGQGVMVTVSS[not shown - human IgG1 constant region]SGGGGSELCDDDPPEIPHATFKAMAYKEGTMLNCECKRGFRRIKSGSLYMLCTGNSSHSSWDNQCQCTSSATRNTTKQVTPQPEEQKERKTTEMQSPMQPVDQASLPGHCREPPPWENEATERIYHFVVGQMVYYQCVQGYRALHRGPAESVCKMTHGKTRWTQPQLICTSGGGGSGGGGSGGGGSGGGS[not shown - about 150 residues]
light: B1 light
B5: 1H3-hIgG1-L6-hCD25(1-164)-L20-hIL-2 (N88R) (other)
heavy: EVQLVESGGGLVQPGRSLKLSCAVSGFTFSDYAMAWVRQAPKKGLEWVATISYDGSRTYYRDSVKGRFTISRDNAKITLYLQMDSLRSEDTATYYCARHGSGYFDYWGQGVMVTVSS[not shown - human IgG1 constant region]SGGGGSELCDDDPPEIPHATFKAMAYKEGTMLNCECKRGFRRIKSGSLYMLCTGNSSHSSWDNQCQCTSSATRNTTKQVTPQPEEQKERKTTEMQSPMQPVDQASLPGHCREPPPWENEATERIYHFVVGQMVYYQCVQGYRALHRGPAESVCKMTHGKTRWTQPQLICTSGGGGSGGGGSGGGGSGGGS[not shown - about 150 residues]
light: B1 light
B6: 1H3-hIgG1-L6-hCD25(1-164)-L20-hIL-2 (N88D) (other)
heavy: EVQLVESGGGLVQPGRSLKLSCAVSGFTFSDYAMAWVRQAPKKGLEWVATISYDGSRTYYRDSVKGRFTISRDNAKITLYLQMDSLRSEDTATYYCARHGSGYFDYWGQGVMVTVSS[not shown - human IgG1 constant region]SGGGGSELCDDDPPEIPHATFKAMAYKEGTMLNCECKRGFRRIKSGSLYMLCTGNSSHSSWDNQCQCTSSATRNTTKQVTPQPEEQKERKTTEMQSPMQPVDQASLPGHCREPPPWENEATERIYHFVVGQMVYYQCVQGYRALHRGPAESVCKMTHGKTRWTQPQLICTSGGGGSGGGGSGGGGSGGGS[not shown - about 150 residues]
light: B1 light
B7: 1H3-hIgG1-L6-hCD25(1-164)-L20-hIL-2 (E95K) (other)
heavy: EVQLVESGGGLVQPGRSLKLSCAVSGFTFSDYAMAWVRQAPKKGLEWVATISYDGSRTYYRDSVKGRFTISRDNAKITLYLQMDSLRSEDTATYYCARHGSGYFDYWGQGVMVTVSS[not shown - human IgG1 constant region]SGGGGSELCDDDPPEIPHATFKAMAYKEGTMLNCECKRGFRRIKSGSLYMLCTGNSSHSSWDNQCQCTSSATRNTTKQVTPQPEEQKERKTTEMQSPMQPVDQASLPGHCREPPPWENEATERIYHFVVGQMVYYQCVQGYRALHRGPAESVCKMTHGKTRWTQPQLICTSGGGGSGGGGSGGGGSGGGS[not shown - about 150 residues]
light: B1 light
B8: 1H3-hIgG1-L6-hCD25(1-164)-L20-hIL-2 (S87A) (other)
heavy: EVQLVESGGGLVQPGRSLKLSCAVSGFTFSDYAMAWVRQAPKKGLEWVATISYDGSRTYYRDSVKGRFTISRDNAKITLYLQMDSLRSEDTATYYCARHGSGYFDYWGQGVMVTVSS[not shown - human IgG1 constant region]SGGGGSELCDDDPPEIPHATFKAMAYKEGTMLNCECKRGFRRIKSGSLYMLCTGNSSHSSWDNQCQCTSSATRNTTKQVTPQPEEQKERKTTEMQSPMQPVDQASLPGHCREPPPWENEATERIYHFVVGQMVYYQCVQGYRALHRGPAESVCKMTHGKTRWTQPQLICTSGGGGSGGGGSGGGGSGGGS[not shown - about 150 residues]
light: B1 light
B9: 1H3-hIgG1-L6-hCD25(1-164)-L20-hIL-2 (D20Y) (other)
heavy: EVQLVESGGGLVQPGRSLKLSCAVSGFTFSDYAMAWVRQAPKKGLEWVATISYDGSRTYYRDSVKGRFTISRDNAKITLYLQMDSLRSEDTATYYCARHGSGYFDYWGQGVMVTVSS[not shown - human IgG1 constant region]SGGGGSELCDDDPPEIPHATFKAMAYKEGTMLNCECKRGFRRIKSGSLYMLCTGNSSHSSWDNQCQCTSSATRNTTKQVTPQPEEQKERKTTEMQSPMQPVDQASLPGHCREPPPWENEATERIYHFVVGQMVYYQCVQGYRALHRGPAESVCKMTHGKTRWTQPQLICTSGGGGSGGGGSGGGGSGGGS[not shown - about 150 residues]
light: B1 light
B10: 1H3-hIgG1-L6-hIL-2 (D20A/R38E) (other)
heavy: EVQLVESGGGLVQPGRSLKLSCAVSGFTFSDYAMAWVRQAPKKGLEWVATISYDGSRTYYRDSVKGRFTISRDNAKITLYLQMDSLRSEDTATYYCARHGSGYFDYWGQGVMVTVSS[not shown - about 450 residues with a human IgG1 Fc and changes]
light: B1 light
B11: 1H3-hIgG1-L6-hIL-2 (D20I/R38E) (other)
heavy: EVQLVESGGGLVQPGRSLKLSCAVSGFTFSDYAMAWVRQAPKKGLEWVATISYDGSRTYYRDSVKGRFTISRDNAKITLYLQMDSLRSEDTATYYCARHGSGYFDYWGQGVMVTVSS[not shown - about 450 residues with a human IgG1 Fc and changes]
light: B1 light
B12: 1H3-hIgG1-L6-hIL-2 (D20F/R38E) (other)
heavy: EVQLVESGGGLVQPGRSLKLSCAVSGFTFSDYAMAWVRQAPKKGLEWVATISYDGSRTYYRDSVKGRFTISRDNAKITLYLQMDSLRSEDTATYYCARHGSGYFDYWGQGVMVTVSS[not shown - about 450 residues with a human IgG1 Fc and changes]
light: B1 light

Molecular target: T1, high affinity hIL-2 receptor …
Assay: cell-based or functional assay

Agonistic Activity (NK-92) [%]	Fold change from rhIL-2 (NK-92) [fold]	Binder
90	14	B1
90	783	B2
	> 10000	B3
	127	B4
	42	B5
	50	B6
	51	B7
90	19	B8
50	> 10000	B9

Molecular target: T2, intermediate affinity hIL-2 receptor …
Assay: cell-based or functional assay

Fold change from rhIL-2 (TF1 + IL-2Rβ) [fold]	Agonistic Activity (TF1 + IL-2Rβ) [%]	Binder
13		B1
~2050	30	B2
> 10000		B3
~8710	50	B4
~6860	50	B5
~3280	90	B6
164	80	B7
20	90	B8
> 10000		B9

Molecular target: T3, intermediate-affinity hIL-2 receptor …
Assay: cell-based or functional assay

Fold decrease from rhIL-2 (TF1 + IL-2Rβ + hPD-1) [fold]	Binder
297	B10

Molecular target: T4, high-affinity hIL-2 receptor (IL-2Rαβγ) …
Assay: cell-based or functional assay

Fold change from rhIL-2 (NK-92) [fold]	Binder
> 10000	B11
> 10000	B12

Molecular target: T3, intermediate-affinity hIL-2 receptor …
Assay: cell-based or functional assay
Remark: another data set of the same source

Fold change from rhIL-2 (TF1 + IL-2Rβ) [fold]	Binder
1780	B11
> 10000	B12
> 10000	B10
